# Experimental data taken from the supplement of paper PMC8728848.
# The other results are listed elsewhere or left out.
# B1: GALT1 615 (Arabidopsis thaliana), Q8L7F9 (protein)
# chain: DPMRGSHHHHHHGMASMTGGQQMGRDLYDDDDKSRLQKPYITAAASVVVTPNTTLPMEWLRITLPDFMKEARNTQEAISGDDIAVVSGLFVEQNVSKEEREPLLTWNRLESLVDNAQSLVNGVDAIKEAGIVWESLVSAVEAKKLVDVNENQTRKGKEELCPQFLSKMNATEADGSSLKLQIPCGLTQGSSITVIGIPDGLVGSFRIDLTGQPLPGEPDPPIIVHYNVRLLGDKSTEDPVIVQNSWTASQDWGAEERCPKFDPDMNKKVDDLDECNKMVGGEINRTSSTSLQSNTSRGVPVAREASKHEKYFPFKQGFLSVATLRVGTEGMQMTVDGKHITSFAFRDTLEPWLVSEIRITGDFRLISILA
# Experiments:
# Test in all cases: glycan array binding signal (z-score within array); higher = stronger binding
# Conditions in all cases: glycan notation: IUPAC condensed, linker removed
# [1] = biological target: Fuc(a1-2)Gal
# Method in brief: (§1)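 Columns mapping to the same glycan were averaged after glycan names were converted to IUPAC-condensed notation. The data come from 3228 arrays in the Consortium for Functional Glycomics database, limited to those with an available protein sequence. Binding is reported as a within-array Z-score averaged across arrays of one protein sequence and across linkers.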
# [2] = biological target: Fuc(a1-2)Gal(b1-3)GalNAc
# Method in brief: as §1
# [3] = biological target: Fuc(a1-2)Gal(b1-3)GalNAc(b1-3)Gal
# Method in brief: as §1
# [4] = biological target: Fuc(a1-2)Gal(b1-3)GalNAc(b1-3)Gal(a1-4)Gal(b1-4)Glc
# Method in brief: as §1
# [5] = biological target: Fuc(a1-2)Gal(b1-3)GalNAc(b1-4)[Neu5Ac(a2-3)]Gal(b1-4)Glc
# Method in brief: as §1
# [6] = biological target: Fuc(a1-2)Gal(b1-3)GlcNAc
# Method in brief: as §1
# [7] = biological target: Fuc(a1-2)Gal(b1-3)GlcNAc(b1-2)Man(a1-3)[Fuc(a1-2)Gal(b1-3)GlcNAc(b1-2)Man(a1-6)]Man(b1-4)GlcNAc(b1-4)GlcNAc
# Method in brief: as §1
# [8] = biological target: Fuc(a1-2)Gal(b1-3)GlcNAc(b1-3)Gal(b1-4)Glc
# Method in brief: as §1
# [9] = biological target: Fuc(a1-2)Gal(b1-3)GlcNAc(b1-3)[Gal(b1-4)[Fuc(a1-3)]GlcNAc(b1-6)]Gal(b1-4)Glc
# Method in brief: as §1
# [10] = biological target: Fuc(a1-2)Gal(b1-3)[Fuc(a1-4)]GlcNAc
# Method in brief: as §1
# [11] = biological target: Fuc(a1-2)Gal(b1-3)[Fuc(a1-4)]GlcNAc(b1-2)Man(a1-3)[Fuc(a1-2)Gal(b1-3)[Fuc(a1-4)]GlcNAc(b1-2)Man(a1-6)]Man(b1-4)GlcNAc(b1-4)GlcNAc
# Method in brief: as §1
# [12] = biological target: Fuc(a1-2)Gal(b1-4)Glc
# Method in brief: as §1
# [13] = biological target: Fuc(a1-2)Gal(b1-4)Glc6S
# Method in brief: as §1
# [14] = biological target: Fuc(a1-2)Gal(b1-4)GlcNAc
# Method in brief: as §1
# [15] = biological target: Fuc(a1-2)Gal(b1-4)GlcNAc(b1-2)Man(a1-3)[Fuc(a1-2)Gal(b1-4)GlcNAc(b1-2)Man(a1-6)]Man(b1-4)GlcNAc(b1-4)GlcNAc
# Method in brief: as §1
# [16] = biological target: Fuc(a1-2)Gal(b1-4)GlcNAc(b1-3)Gal(b1-4)GlcNAc
# Method in brief: as §1
# [17] = biological target: Fuc(a1-2)Gal(b1-4)GlcNAc(b1-3)Gal(b1-4)GlcNAc(b1-3)Gal(b1-4)GlcNAc
# Method in brief: as §1
# [18] = biological target: Fuc(a1-2)Gal(b1-4)GlcNAc6S
# Method in brief: as §1
# [19] = biological target: Fuc(a1-2)Gal(b1-4)[Fuc(a1-3)]GlcNAc
# Method in brief: as §1
# [20] = biological target: Fuc(a1-2)Gal(b1-4)[Fuc(a1-3)]GlcNAc(b1-2)Man(a1-3)[Fuc(a1-2)Gal(b1-4)[Fuc(a1-3)]GlcNAc(b1-2)Man(a1-6)]Man(b1-4)GlcNAc(b1-4)GlcNAc
# Method in brief: as §1
# [21] = biological target: Fuc(a1-2)Gal(b1-4)[Fuc(a1-3)]GlcNAc(b1-3)Gal(b1-4)[Fuc(a1-3)]GlcNAc
# Method in brief: as §1
# [22] = biological target: Fuc(a1-2)Gal(b1-4)[Fuc(a1-3)]GlcNAc(b1-3)Gal(b1-4)[Fuc(a1-3)]GlcNAc(b1-3)Gal(b1-4)[Fuc(a1-3)]GlcNAc
# Method in brief: as §1
# [23] = biological target: Fuc(a1-2)Gal6S(b1-4)Glc
# Method in brief: as §1
# [24] = biological target: Fuc(a1-2)Gal6S(b1-4)Glc6S
# Method in brief: as §1
# [25] = biological target: Fuc(a1-2)Gal6S(b1-4)GlcNAc
# Method in brief: as §1
# [26] = biological target: Fuc(a1-2)[Gal(a1-3)]Gal
# Method in brief: as §1
# [27] = biological target: Fuc(a1-2)[Gal(a1-3)]Gal(b1-3)GlcNAc
# Method in brief: as §1
# [28] = biological target: Fuc(a1-2)[Gal(a1-3)]Gal(b1-3)GlcNAc(b1-2)Man(a1-3)[Fuc(a1-2)[Gal(a1-3)]Gal(b1-3)GlcNAc(b1-2)Man(a1-6)]Man(b1-4)GlcNAc(b1-4)GlcNAc
# Method in brief: as §1
# [29] = biological target: Fuc(a1-2)[Gal(a1-3)]Gal(b1-4)Glc
# Method in brief: as §1
# [30] = biological target: Fuc(a1-2)[Gal(a1-3)]Gal(b1-4)GlcNAc
# Method in brief: as §1
binder,measurement,setting,value
B1,glycan array binding signal (z-score),[1],-0.175
same,glycan array binding signal (z-score),[2],0.1
same,glycan array binding signal (z-score),[3],8.63
same,glycan array binding signal (z-score),[4],-0.235
same,glycan array binding signal (z-score),[5],-0.445
same,glycan array binding signal (z-score),[6],0.807
same,glycan array binding signal (z-score),[7],-0.319
same,glycan array binding signal (z-score),[8],-0.17
same,glycan array binding signal (z-score),[9],-0.284
same,glycan array binding signal (z-score),[10],-0.251
same,glycan array binding signal (z-score),[11],0.828
same,glycan array binding signal (z-score),[12],-0.302
same,glycan array binding signal (z-score),[13],-0.165
same,glycan array binding signal (z-score),[14],-0.374
same,glycan array binding signal (z-score),[15],-0.089
same,glycan array binding signal (z-score),[16],-0.214
same,glycan array binding signal (z-score),[17],-0.441
same,glycan array binding signal (z-score),[18],-0.367
same,glycan array binding signal (z-score),[19],4.77
same,glycan array binding signal (z-score),[20],0.697
same,glycan array binding signal (z-score),[21],0.745
same,glycan array binding signal (z-score),[22],1.95
same,glycan array binding signal (z-score),[23],1.86
same,glycan array binding signal (z-score),[24],-0.053
same,glycan array binding signal (z-score),[25],-0.321
same,glycan array binding signal (z-score),[26],0.233
same,glycan array binding signal (z-score),[27],-0.245
same,glycan array binding signal (z-score),[28],-0.179
same,glycan array binding signal (z-score),[29],-0.086
same,glycan array binding signal (z-score),[30],-0.336
